Reference: the RNAGym collection of RNA variant scans (doi:10.1073/pnas.2313332121)
Variants at the background level are over-represented here.

B1: TPR 5TU (parent)
chain: GGAUCUUCUCGAUCUAACAAAAAAGACAAAUCUGCCACAAAGCUUGAGAGCAUCUUCGGAUGCAGAGGCGGCAGCCUUCGGUGGCGCGAUAGCGCCAACGUUCUCAACUAUGACACGCAAAACGCGUGCUCCGUUGAAUGGAGUUUAUCAUG

Variants of: B1
Assay: polymerase ribozyme fitness, log enrichment relative to wild type (log ratio); higher = more active; in vitro selection for triplet polymerase activity
Summary of the method: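 A heterodimeric triplet polymerase ribozyme had each of its subunits mutagenized by PCR into a library, which was transcribed. One round of in vitro selection, done in triplicate, annealed each library with a biotinylated primer, its partner subunit and triplets, then incubated it frozen at −7 °C before gel excision of extended constructs, streptavidin-bead capture and RT-PCR. Fitness is the logarithm of genotype enrichment relative to wild-type enrichment, based on Illumina sequencing of inputs and outputs and inverse-variance-weighted replicate averages. A base-2 logarithm is used, and genotypes were kept only with ≥10 input reads and ≥1 read per output.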
In the case of GGAUCUUCUCGAUCUAACAAAAAAGACACAUCUGCCACAAUGCUUGAGAGCAUCUUCGGAUGCAGAGGCGGCAGCCUUCGGUAGCGCGAUAGCGCCAACGUUCUCAACUAUGACACGCAAAACGCGUGCUCCGUUGAUUGGAGUUUAUCAUG, the “polymerase ribozyme fitness (log ratio)” value is reported as ≤ -4.2.
With GGAUCUUCUCGAUCUAACAAAAAAGACUAAUCUGCCACAAAGCUUGAGAGCAUCUUCGGAUACAAAGGCGGCAGCCUUCGGUGGCGCGAUAGCACCAACGUUCUCAACUAUGACACGCAAAACGCGUGCUCCGUUAAAUGGAGUUUAUCAUG the “polymerase ribozyme fitness (log ratio)” value was ≤ -4.2.
With GGAUCUUCUCGAUCUAACAAAAAAGACUAAUCUGCCACAAAGCUUGAGAGCACCUUCGGAUGCAGAGGCGGCAGCCUUCGGUGGCGCGAUAGCGCCAACGUUCUGGACUAUGACACGCAAAACGCGUGCUCCGUUGAAUGGAGUUUAUCAUG the “polymerase ribozyme fitness (log ratio)” value was ≤ -4.2.
For GGAUCUUCUCGAUCUAACAAAAAAGACACAUCUGCCACUAAGCUUGAGAGCAUCUUCGGAUGCAGAGGCGGCACCAUUCGGUGGCGCGAUAGCGCCAACGUUCUCAACUAUGACACGCAAAACGCGUGCUCAGUUGAAUGGAGUUUAUCAUG, the “polymerase ribozyme fitness (log ratio)” value was ≤ -4.2.
For GGAUCUUCUCGAUCUAACAAAAAAGACACAUCUGCCACAAAGCUUGAGCGCGUCUUCGGAUGCAGAGGCGGCAGCCUUCGGUUGCGCGAUAGCGCCAACAUUCUCAACUAUGACACGCAAAACGCGUGCUCCGUGGAAUGGAGUUUAUCAUG, the “polymerase ribozyme fitness (log ratio)” value was ≤ -4.2.
In the case of GGAUCUUCUCGAUCUAACAAAAAAGACUAAUCUGCCACAAAGCUUGAGAGCAUCCUCGGAUGCAGAGGCGGCAGCCUUCGGUGGCGCGAUAGCGCAAACGUUCUCAACUAUGACACGCAAAACGCGUGCUCCGUUGAAUGGAGUUUAUCAUG, the “polymerase ribozyme fitness (log ratio)” value is reported as ≤ -4.2.
With GGAUCUUCUCGAUCUAACAAAAAAGACACUUCUGCCACAAAGCUUGAGAGCAUCUUCGGAUGCAGAGGCGGCAGCCUUCGGAGACGCGAUAGCGCCAACGUUCUCAACUAUGACACGCAAAAUGCGCGCUCCGUUGAAUGGAGUUUAUGAUG the “polymerase ribozyme fitness (log ratio)” value was ≤ -4.2.
For GGAUCUUCUCGAUCUAACAAAAAAGACUAAUCUGCCACAAAGCUUGAGAGCAACUUCGGAUGCAGAGGCGGCAGCCUUCGCUGGCGCGAUAGCGGCAACGUUCUCAUCUAUGACACGCAAAACGCGUGCUCCGUUGAAAGGAGUUUAUCAUG, the “polymerase ribozyme fitness (log ratio)” value was ≤ -4.2.
In the case of GGAUCUUCUCGAUCUAACAAAAAAGACUAAUCUGCCACAAAGCUUGAGAGCAUCUUCGGAAGCAGAGGCGGCAGCCUUGGGUGGCGGGAUAGCGCCAACGUUCUCAACUAUGACACGCAAAACGCGUGCUCCGUUGAAUGGAGUUUAUCAUG, the “polymerase ribozyme fitness (log ratio)” value is reported as ≤ -4.2.
For GGAUCUUCUCGAUCUAACAAAAAAGACUAAUCUGCCACAAAGCUUGAGAGCAUCUUCUGAUGCAGAGGCGGCAGCCUUGGGUGGCGCGAUAUCGCCAACGUUCUCAACUAUGACACGCAAAACGCGUGCUCCGUUGAAUGGAGUUUAUCAUG, the “polymerase ribozyme fitness (log ratio)” value was ≤ -4.2.
In the case of GGAUCUUCUCGAUCUAACAAAAAAGACACAUCUGCCACAUCGCUUGAGAGCAUCUUCGGAUGCAGAGGCGGCAGCCUUCGGUGACGCGAUAGCGCCAACGUUCUCAACUAUGACACGCAAAACGCGUGCUCCGUUGAAUGAAGUUUAUCAUG, the “polymerase ribozyme fitness (log ratio)” value is reported as ≤ -4.2.
For GGAUCUUCUCGAUCUAACAAAAAAGACUAAUCUGCCACAAAGCUUGAGAUCAUCUUCGGAUGCAGAGGCGGCAGCCUUGGGUGGCGCGAGAGCGCCAACGUUCUCAACUAUGACACGCAAAACGCGUGCUCCGUUGGAUGGAGUUUAUCAUG, the “polymerase ribozyme fitness (log ratio)” value was ≤ -4.2.
With GGAUCUUCUCGAUCUAACAAAAAAGACUAAUCUGCCACAAAGCUUGAGAGCAUCUUCGGAGGCAGAGGCGGCAGGCUUCGGUGGCGCGAUGGCGCCAACCUUCUUAACUGUGACACGCAAAACGCGUGCUCCGUUGAAUGGAGUUUAUCAUG the “polymerase ribozyme fitness (log ratio)” value was ≤ -4.2.
With GGAUCUUCUCGAUCUAACAAAAAAGACUAAUCUGCCACAAAGCUUGAGAGCAUCUACGGAUGCAGAGGCGGCAGCCUUCGAUGGCGCGAUAGCGUCAACGUUCUCAACUAUGACACGCAAAACGCGUGCUCCGUUGAAUGGAGUUUAUCAUG the “polymerase ribozyme fitness (log ratio)” value was ≤ -4.2.
In the case of GGAUCUUCUCGAUCUAACAAAAAAGACUAAGCUGCCACAAAGCUUGAGAGCAUCUUCGGAUGCAGAGGCGGCAGCCUUCGGUGGCGCGAUAGCGCCAACGUUCUCAACUAUGACACGCAAAACGCGUGCUCCGUUGAAUGGAGUUUAUCAUG, the “polymerase ribozyme fitness (log ratio)” value is reported as ≤ -4.2.
In the case of GGAUCUUCUCGAUCUAACAAAAAAGACACAUCUGCCACAAAGCUUGUGAGCAUCUUCGGUUGGAGAGGCGGCAGCCUUCGGUGGCGCGAUAGCGCCAACGUUCUCAACUAUGACUCGCAAAACGCGUGCUCCGUUGCAUGGAGUUUAUCAUG, the “polymerase ribozyme fitness (log ratio)” value is reported as ≤ -4.2.
With GGAUCUUCUCGAUCUAACAAAAAAGACUAAUCAGCCACAAAGCUUGAGAGCAUCUUCGGAUGCAGAGGGGGAAGCCUGUGGUAGCGCGAUAGCGCCAACGUUCUCAACUAUGACACGCAAAACGCGUGCUCCGUUGAAUGGAGUUUAUCAUG the “polymerase ribozyme fitness (log ratio)” value was ≤ -4.2.
For GGAUCUUCUCGAUCUAACAAAAAAGACUAAUCUGCCACAAAGCUUGAGAGCAUCUUCGGAUGCAGAGGCGGCAGCCUUCGGUGUCGCGAUAGCGCCAACGUUCUCAACUAUGACACGCAAAACGCGUGCUCCGUUGAAUGGAGUUUAUCAUG, the “polymerase ribozyme fitness (log ratio)” value was ≤ -4.2.
With GGAUCUUCUCGAUCUAACAAAAAAGACUAAUCUGCCACAAAGCUUGAGACCAUCUUCGGAUGCAGAGGCGGCAGCCUUCGGUCGCGCGAUAGCGCCAACGUUCUCAACUCUGACACGCAAAACGCGUGCUCCGUUGAAUGGAGUUUAUCAUG the “polymerase ribozyme fitness (log ratio)” value was ≤ -4.2.
